Test results reported in ChEMBL document CHEMBL1157539, “Thousands of chemical starting points for antimalarial lead identification” (Nature, 2010).
Over roughly 13,000 compounds, “IFI” has its median near 4; the highest 2% begin near 17. The list shows a part of the results.

Experiment: GSK_TCMDC: Inhibition Frequency Index (IFI). The number of non-kinase HTS assays where a compound showed > 50 % inhibition, expressed as a percentage of the number of such assays in which the compound was tested (-0 is zero)
Format: functional

Structure (SMILES)	IFI [%]
COc1ccc(C(=C(C)CC(C)C(=O)O)c2ccccc2)cc1 (configuration not stated)	1.46
c1ccc(CN2CCC(NCc3cccc(-c4cncc5ccccc45)c3)CC2)cc1	8.2
Clc1ccccc1CN1CCC(NCc2cccc(-n3ccnc3)c2)CC1	-0
C=CCc1cc(C2CCN(CCCCNC(=O)c3ccc(-c4ccc(C#N)cc4)cc3)CC2)c(OCC(N)=O)c2c1CCCC2	8.33
COc1ccc(F)cc1-c1ccccc1CNC(=O)CN(C)S(=O)(=O)c1cc(C)cc(Cl)c1C	2.86
COc1ccc2c(=NN=Cc3cccc(F)c3)cc(C)[nH]c2c1	3.76
Cc1nn(C)c(C)c1CN(Cc1nc(-c2cccc(Oc3ccccc3)c2)oc1C)C1CC1	4.88
O=[N+]([O-])c1ccc2ncnc(Nc3ccc(F)c(Cl)c3)c2c1	1.36
COc1ccc2c(NN=Cc3ccccc3)ccnc2c1	-0
Oc1ccccc1CN1CCN(C(c2ccccc2)c2ccccc2)CC1	2.02
CC(C)NCc1ccc(-c2cccc(NC(=O)c3cccc(C#N)c3)c2)cc1	1.96
COc1ccc(CN2CCCC(C(=O)c3ccc(C(F)(F)F)cc3)C2)c(O)c1 (configuration not stated)	4.65
CC1N=C(N)N=C(N)N1OCc1cccc2ccccc12 (configuration not stated)	3.6
CCN(CC)CCN(Cc1ccc(-c2ccc(C(F)(F)F)cc2)cc1)C(=O)Cn1cc(Cc2cnn(C)c2)c(=O)nc1/C=C/c1cccc(F)c1F	6.62
COc1cc(C(=O)Nc2cccc(-c3cn4cccc(C)c4n3)c2)cc(OC)c1OC	2.76
CC(=O)Nc1cccc(C(=O)Nc2cccc(-c3cccc(-c4nc5cc(F)ccc5[nH]4)c3)c2)c1	4.42
Cn1c(-c2ccccc2)cc2c3c(N)nc(N)nc3ccc21	9.42
CN(C)CCCNc1nccc(N(C)c2ccc(NC(=O)Nc3cc(C(F)(F)F)ccc3F)cc2)n1	7.35
Cc1cccc2nc(-c3cccc(-c4cccc(CN5CCN(c6ccc(C#N)cn6)CC5)c4)c3)[nH]c12	-0
Cc1cc(N2CCNCC2)c2cc(NC(=O)Nc3ccc(Cl)c(Cl)c3)ccc2n1	4.29
Oc1ccccc1CN(CCCN(Cc1ccccn1)Cc1ccccc1O)Cc1ccccn1	3.82
Cc1cc(NCC(c2ccccc2)c2ccccc2)nc(NCc2ccc(C(F)(F)F)cc2)n1	12.1
Cc1cc2[nH]c(-c3ccc(C(=O)NCCCN4CCN(c5cccc(Cl)c5)CC4)s3)nc2cc1Cl	0.74

Structure (SMILES)	IFI [%]
c1ccc(CCNCc2cccc(-c3ccc(CNc4ccc5ncccc5c4)cc3)c2)cc1	12.6
CON=C1CCC(Cn2ccnc2)(c2ccc(Cl)cc2Cl)CC1 (configuration not stated)	3.45
O=C(/C=C/c1ccc(Cl)c(Cl)c1)NC1CCC(CN2CCC(c3c[nH]c4ccncc34)CC2)CC1 (configuration not stated)	1.42
c1ccc(COc2ccc(Nc3ncnc4cnc(-c5ccc(CNc6cccnc6)o5)cc34)cc2)cc1	2.86
CN1CCCc2ccc(NC(=O)C=Cc3ccc(-c4ccc(F)cc4F)o3)cc2C1	8.33
C[C@@H](Oc1cc(-n2cnc3ccc(OCC4CCN(S(C)(=O)=O)CC4)cc32)sc1C(N)=O)c1ccccc1C(F)(F)F	9.29
CCCN1CCN(CCNc2c3ccccc3nc3ccccc23)CC1	5.15
Cc1n[nH]c2cc(Nc3ccnc(Nc4cccc(CN5CCOCC5)c4)n3)ccc12	3.33
COc1cc2nccc(Nc3ccc(Oc4ccccc4)cc3)c2cc1OC	2.19
CCc1cc(OC)ccc1C1CCN(CCCCNC(=O)c2ccc(NC(=O)c3ccc(Cl)cc3)cc2)CC1	3.73
CCC(C)NC(=O)CN1CN(c2ccccc2)C2(CCN(C(=O)c3ccc(C(C)(C)C)cc3)CC2)C1=O (configuration not stated)	3.33
COc1ccc2ccccc2c1CCCCN1CCN(CC(c2ccc(F)cc2)N2CCC2)CC1 (configuration not stated)	18.4
CN1CCN(CCCN(Cc2ccc(-c3cccc(CNC4CCCC4)c3)cc2)C(=O)Nc2ccccc2)CC1	3.57
O=S(=O)(NC1CCN(c2ccnc3cc(Cl)ccc23)C1)c1ccc(F)cc1 (configuration not stated)	-0
CCC(C)(C)C1CCc2[nH]c3ccccc3c(=O)c2C1 (configuration not stated)	1.45
O=C(Nc1ccc(C(=O)Oc2ccc(-c3ccccc3)cc2)cc1)N[C@@H](Cc1ccc(O)cc1)C(=O)NC1CCN(Cc2ccc(O)cc2)C1 (some centres not stated)	8.78
OCC1CCN(Cc2ccc(-c3cccc(-c4nc5ccccc5[nH]4)c3)cc2)CC1	0.97
N=C(N)CCN(Cc1ccc(Cl)cc1)c1ccc(Cl)cc1	4.14
Nc1ncnc2nc(-c3ccc(F)cc3)cc(-c3ccc(NC(=O)c4ccccc4)cc3)c12	4.17
CCCCc1ccc(-c2ccc(-c3c(C)[nH]c(C)c(Br)c3=O)cn2)cc1	0
Clc1ccc(Cn2nc(Br)nc2Br)c(Cl)c1	3.57
COc1cc(-c2cc(-c3ccc(S(C)(=O)=O)cc3)cnc2N)ccc1O	4.84
O=C(Nc1ccc(Cn2nc(Cl)c(N3CCNCC3)cc2=O)cc1)Nc1ccc(-c2ccccc2)cc1	4.83

Structure (SMILES)	IFI [%]
O=C(Nc1ccc(N2CCNCC2)nc1)c1oc(-c2ccccc2)nc1C(F)(F)F	10
O=C(NCCN1CCCC1)N1CCCN(c2ncnc3cc(-c4ccc(Cl)cc4)sc23)CC1	7.69
O=c1[nH]c2c(cc1CNC1CCCCC1)c(-c1ccc(F)cc1)nn2-c1ccccc1	3.85
O=C(NC1CCN(Cc2ccccc2)CC1)c1ccc(-c2nc3cc(Cl)c(F)cc3[nH]2)s1	3.6
CN(c1ccc(NC(=O)c2cccc(F)c2)cc1)C1CCCN(Cc2cccc(O)c2)C1 (configuration not stated)	15.4
Cc1cccc2nc(-c3cccc(-c4ccc(NC(=O)COC(C)C)cc4)c3)[nH]c12	2.61
O=C(Nc1cccc(F)c1)NC1CCN(c2ccnc3cc(Cl)ccc23)CC1	3.23
CCOC(=O)CCc1cc(F)c(F)c(OC[C@H](O)CNC(C)(C)C(O)c2ccc3ccccc3c2)c1 (some centres not stated)	7.76
CC(C)c1cc(Oc2c(I)cc(CCNCc3ccccc3)cc2I)ccc1O	15.3
Fc1ccc2[nH]c(-c3cccc(-c4cccc(CN5CCN(c6ccncc6)CC5)c4)c3)nc2c1	13.6
CCCN1CCC(c2c[nH]c3ccc(NC(=O)Nc4cccc(Cl)c4Cl)cc23)CC1	4.32
CN1CCc2cc(O)c(NS(=O)(=O)c3ccc(-c4ccc(Cl)cc4)cc3)cc2CC1	4.38
CC(C)N1CCN(C(CN2CCN(CCCOc3ccc4nonc4c3)CC2)c2ccc(F)cc2)CC1 (configuration not stated)	2.8
CCN(CC)CCN(Cc1ccc(-c2ccc(C(F)(F)F)cc2)cc1)C(=O)Cn1c(CCc2ccc(F)c(F)c2F)nc(=O)c2ccccc21	7.64
Cc1cc(CNCCCCCNCc2ccc(Cl)cc2)ccc1O	0.75
CN1CCN(CCCN(Cc2cccc(-c3ccc(CNCc4ccc5c(c4)OCO5)cc3)c2)C(=O)Nc2ccccc2)CC1	9.56
COc1cc(COc2c(C)nc(N)nc2N)cc(OC)c1OC	0
Cc1ccc2nc(C)cc(N/N=C/c3cccc([N+](=O)[O-])c3)c2c1	2.13
CCN(CC)CC(O)c1cc(-c2ccc(OC)cc2)nc2cc(Cl)ccc12 (configuration not stated)	2.94
Nc1ncc(-c2ccc(NC(=O)Nc3cc(C(F)(F)F)ccc3F)cc2)c(N)n1	0
O=C(NCCN1CCOCC1)c1ccc(-c2ccc(CNCCCc3ccccc3)cc2)nc1	-0
O=C(Nc1cccc(-c2cccc(-c3nc4cc(C(F)(F)F)ccc4[nH]3)c2)c1)c1ccoc1	6.19
N#Cc1ccc2c(c1)CCN(CCC1CCC(NC(=O)c3cc4cccc(Cl)c4[nH]3)CC1)CC2 (configuration not stated)	10.5

Structure (SMILES)	IFI [%]
CCN(CC)CCNc1ccc(Nc2ccnc3cc4ccccc4cc23)cc1	4.41
FC(F)(F)c1ccc2[nH]c(-c3ccc(-c4ccc(CNCCc5ccncc5)cc4)cc3)nc2c1	12
Cc1[nH]c(C)c(-c2ccc(-c3cccc(OC(F)(F)F)c3)nc2)c(=O)c1Cl	4.55
CC1(C)NC(N)=NC(=N)N1OCCCOc1ccc(N)cc1	7.8
COc1ccc(CN2CCCN(Cc3cccc(NC(=O)c4ccc(-c5ccccc5)cc4)c3)CC2)cc1	8.11
CCOc1ccc2[nH]c(C)cc(=NN=Cc3ccncc3)c2c1	0.75
CC(C)C(=O)ONC1=NC(=N)N(OCCCOc2cc(Cl)c(Cl)cc2Cl)C(C)(C)N1	2.8
O=C(Nc1ccc(CN2CCCCC2)cc1)c1ccc(COc2ccc([N+](=O)[O-])cc2)o1	3.88
Cn1c(NC(=O)C2CCC(CNC(=O)c3ccc(O)c(-c4ccc(Cl)c(Cl)c4)c3)CC2)nc2ccccc21 (configuration not stated)	2.26
Cc1ccc(-c2nnc(Nc3ccc(OCC(N)=O)cc3)c3ccccc23)cc1S(=O)(=O)NCC1CCCO1 (configuration not stated)	0.67
COc1ccc2[nH]ccc(=NN=CC=Cc3ccccc3)c2c1	5.76
CCOc1ccc(NC(=O)c2ccc(NCCCN3CC(C)CC(C)C3)c([N+](=O)[O-])c2)cc1 (configuration not stated)	2.24
CCC(CC(C)C(=O)O)=C(c1ccccc1)c1ccccc1 (configuration not stated)	-0
OC(CNCc1ccccc1OCc1ccccc1)c1cccc(I)c1 (configuration not stated)	8
CC1CCN(Cc2c(O)ccc3c(CN4CCC(C)CC4)c(O)ccc23)CC1	6.98
Cc1cccc2nc(-c3ccc(-c4ccc(NC(=O)NCc5ccccc5)cc4)s3)[nH]c12	4.04
CC(C)COc1ccc(Cl)cc1Cc1nc(-c2nc3ccc(CN(C)C)cc3[nH]2)co1	10.2
CN(C(=O)Nc1ccc(F)cc1)C1CCN(CCCCCNC(=O)/C=C/c2ccc(Cl)c(Cl)c2)CC1	4.41
CN(C)c1ccc2nc(N)nc(N)c2c1Cl	1.43
COc1ccc2nccc([C@@H](O)CN3CCC(NC(=O)C(c4cc5ccccc5o4)N4CCN(c5ccccc5OC)CC4)CC3)c2c1 (some centres not stated)	2.78
CC(C)c1ccc(-c2nc3cc(Cl)cnc3[nH]2)cc1	8.33
CCOc1ccc(C2CCN(CCN3CCC(NC(=O)c4ccc(-c5ccc(C(F)(F)F)cc5)cc4)CC3)CC2)c(OCC2CC2)c1	0.89
Fc1cc(Cl)ccc1Nc1ccnc2cc(-c3ccc(CNCCN4CCOCC4)o3)ccc12	4.38
